Test results published in PubChem BioAssay AID485294 (National Center for Advancing Translational Sciences (NCATS), 2010).
Several values for one entry are separate records, joined by “and”; a condition that tells them apart may be missing. Identical values can stand only once. The whole screen tested about 370,000 compounds, of which about 150 (0.041%) were called active. This list was built around the results that the source calls inconclusive (neither active nor inactive); the mix of calls is not that of the screen. Calls come from the whole dose curve; as a rule, active = well fitted inhibition curve with a large enough effect; inconclusive = small, poorly fitted or top-dose-only effect; inactive = flat fitted curve, though single readings scatter. Where the call is inconclusive, the potency comes from a doubtful curve fit.

The compounds below were run against Beta-lactamase (Escherichia coli (strain K12)) (UniProt P00811) (assay: qHTS Inhibitors of AmpC Beta-Lactamase (assay with detergent)). Details: AmpC hydrolysis of nitrocefin, absorbance 480 nm, 0.01% Triton; series mostly up to 114 µM.
UniProt P00811, sequence (P00811 whole entry, looked up): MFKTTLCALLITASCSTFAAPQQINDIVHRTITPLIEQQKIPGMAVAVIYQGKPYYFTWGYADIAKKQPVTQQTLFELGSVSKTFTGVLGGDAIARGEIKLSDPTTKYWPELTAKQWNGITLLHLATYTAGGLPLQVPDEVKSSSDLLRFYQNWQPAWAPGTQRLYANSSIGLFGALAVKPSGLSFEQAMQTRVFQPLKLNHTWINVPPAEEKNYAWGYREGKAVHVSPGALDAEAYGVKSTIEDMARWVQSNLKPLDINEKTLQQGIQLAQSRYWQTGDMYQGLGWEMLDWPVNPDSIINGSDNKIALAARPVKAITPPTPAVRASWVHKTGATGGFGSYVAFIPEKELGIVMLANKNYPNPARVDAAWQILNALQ
Outline: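 AmpC (5.3 nM in the dispensed reagent) in 20 mM phosphate pH 7.0 with 0.01% (detergent screen) or 0.0001% Triton X-100 was preincubated with compounds for 15 min at room temperature. Nitrocefin was then added from an 800 uM solution, and hydrolysis was followed at 480 nm.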
Note: nearly all actives have a fitted effect of over 25% in size.
Potency is the fitted concentration of half-maximal effect; tags give direction and shape of the fitted curve.

| Compound | Potency |
| --- | --- |
| O[C@@H](CNC[C@H](O)c1ccccc1)c1ccccc1 | inactive |
| Cc1nc2cc3c(cc2c(C)c1C(=O)OC(C)C)OCO3 | inconclusive: 1.58 µM [inhibitor, full curve] |
| CC1CCN(C(=O)CN(c2ccc3c(c2)OCO3)S(C)(=O)=O)CC1 | inconclusive: 3.98 µM [inhibitor, full curve] |
| CCn1c(SCc2nc(-c3ccccc3)no2)nc2ccccc21 | inactive |
| O=C(CN1C(=O)S/C(=C\C=C\c2ccccc2)C1=O)Nc1ccc(O)cc1 | inconclusive: 100 µM [inhibitor, partial curve, poor fit] |
| CCOc1ccc(N2C(=O)C(c3ccccc3)=C(c3nc4ccccc4s3)C2NC(C)=O)cc1 (stereo unspecified) | inactive |
| Cc1ccccc1OCc1n(CC(=O)OC2CC(C)CCC2C(C)C)c2ccccc2[n+]1C (stereo unspecified) | inactive and inconclusive: 100 µM [inhibitor, single point] |
| COc1ccc(-c2sccc2C(C)C(=O)O)cc1 (stereo unspecified) | inconclusive: 100 µM [inhibitor, partial curve, poor fit] |
| CC(C#N)(Nc1ccc(Cl)cc1)c1cccnc1 (stereo unspecified) | inconclusive: 39.8 µM [inhibitor, single point] |
| O=C(c1coc(=O)c(Br)c1)N1CCCc2ccccc21 | inconclusive: 44.7 µM [inhibitor, partial curve] |
| Cn1cc(C(=O)NC2CCCCCC2)c(=O)c2cc(S(=O)(=O)N3CCCC3)ccc21 | inconclusive: 100 µM [inhibitor, partial curve, poor fit] |
| O=C(CNC(=O)c1ccc(Br)o1)NNC(=O)COc1ccccc1Cl | inconclusive: 0.631 µM [inhibitor, full curve, poor fit] |
| O=C(N/N=C/c1ccccc1Cl)c1nc2ccc([N+](=O)[O-])cc2c(=O)[nH]1 | inactive |
| O=C(O)CSc1nnc(SCc2cccc3ccccc23)s1 | inconclusive: 3.98 µM [inhibitor, partial curve, poor fit] |
| COc1cc(-c2nc3cc(C)ccn3c2NC2CCCCC2)ccc1-c1ccc(C(C)=O)cc1 | inactive |
| O=C(NCCS(=O)(=O)NCc1cccnc1)c1ccccc1 | inconclusive: 3.98 µM [inhibitor, full curve] |
| COc1ccc(-c2[nH]c(-c3ccc(F)cc3)nc2SCC(=O)NCc2ccco2)cc1OC | inconclusive: 0.631 µM [inhibitor, full curve, poor fit] |
| CCc1nnc(NC(=O)C2Cc3ccccc3CN2S(=O)(=O)CC)s1 (stereo unspecified) | inconclusive: 3.55 µM [inhibitor, full curve] |
| Cc1ccc(NC(=O)CN2C(=O)CSc3ccc(S(=O)(=O)N4CCCC4)cc32)c(C)c1 | inactive |
| COCCN1C(=O)C(=O)/C(=C(/O)c2ccc(S(=O)(=O)N3CCOCC3)cc2)C1c1ccc(C(C)C)cc1 (stereo unspecified) | inconclusive: 89.1 µM [inhibitor, partial curve] |
| O=C(N1CCCCC1)C12CC3CC(C1)CC(C(=O)N1CCCCC1)(C3)C2 | inconclusive: 0.631 µM [inhibitor, full curve, poor fit] |
| CC(C)N(C)Cc1cn(C)nc1-c1ccc(Oc2ccccc2)cc1 | inactive |
| COc1ccc2c(CC(=O)Nc3cccc(S(=O)(=O)N4CCOCC4)c3)coc2c1 | inactive |
| CN(C)CCn1c2c(c(SCC(=O)Nc3nccs3)nc1=O)CCCC2 | inconclusive: 0.708 µM [inhibitor, full curve, poor fit] |

| Compound | Potency |
| --- | --- |
| Cn1nnnc1SCC(=O)Nc1cccc(S(=O)(=O)N2CCCC2)c1 | inactive |
| COc1ccc(C)cc1NC(=O)c1cnc2n(c1=O)CCS2 | inconclusive: 5.01 µM [inhibitor, single point] |
| CC(=O)Nc1cccc(C(=O)Nc2ccc(S(=O)(=O)NC3=NCCCCC3)cc2)c1 | inconclusive: 112 µM [inhibitor, partial curve, poor fit] |
| CCCOCC(O)CC(CC)C(=O)NNC(=S)Nc1ccccc1 (stereo unspecified) | inconclusive: 89.1 µM [inhibitor, single point] |
| CCOc1ccc2[nH]c(C)c(CN3CCCCCC3)c(=O)c2c1 | inactive |
| CCOC(=O)C(C)Sc1nc(N)c(NC(=O)c2ccc(OC)c(OC)c2)c(=O)[nH]1 (stereo unspecified) | inconclusive: 2.51 µM [inhibitor, full curve] |
| COc1ccc(CN(C(=O)c2cc3ccccc3oc2=O)C2CCCC2)cc1 | inconclusive: 0.631 µM [inhibitor, full curve, poor fit] |
| O=C(O)COc1ccc(Cl)cc1CO | inconclusive: 22.4 µM [inhibitor, partial curve, poor fit] |
| O=C(COC(=O)CN1C(=O)c2ccccc2C1=O)Nc1ccc(S(=O)(=O)N2CCCC2)cc1 | inconclusive: 25.1 µM [inhibitor, full curve, poor fit] |
| COc1ccccc1NC(=O)C1=C(C)Nc2nc3ccccc3n2C1c1cccc(Br)c1 (stereo unspecified) | inactive |
| Cc1ccnc(NC(=O)c2cccc(NC(=O)CC3SC(N4CCCCC4)=NC3=O)c2)c1 (stereo unspecified) | inactive |
| O=C(NCCc1ccccc1)c1ccnc(/C=N/O)c1 | inconclusive: 44.7 µM [inhibitor, partial curve] |
| Cn1c(N)c(C(=O)COC(=O)c2cc(-c3ccco3)nc3ccccc23)c(=O)n(Cc2ccccc2)c1=O | inactive |
| CCCNc1nc2c(c(=O)[nH]c(=O)n2C)n1CCc1ccccc1 | inconclusive: 3.55 µM [inhibitor, full curve] |
| Cc1cc(C)n(CC(=O)NCc2ccccc2)c(=O)c1C#N | inactive |
| Cc1cc(NC(=O)C2CCCN2C(=O)Nc2c(C)cccc2C)ccc1-n1cnnn1 (stereo unspecified) | inconclusive: 1.78 µM [inhibitor, full curve, poor fit] |
| COc1ccccc1CC(=O)N1CCN(c2ccccc2F)CC1 | inactive |
| CC(=O)N1c2ccccc2C(=O)C1N1CCCCC1 (stereo unspecified) | inconclusive: 0.631 µM [inhibitor, full curve] |
| CCCc1c(C)[nH]c2ccc(C(=O)O)cc2c1=S | active: 39.8 µM |
| CCn1c(SCC(=O)N2CCC(C)CC2)nnc1-c1ccccc1O | inactive |
| CCc1ccc(C2CC(c3cccc(OC)c3)n3nc(N)nc3N2)cc1 (stereo unspecified) | inconclusive: 10 µM [inhibitor, partial curve] |
| CCCc1nc(-c2ccccc2O)n(-c2ccccc2)n1 | inconclusive: 8.91 µM [inhibitor, full curve, poor fit] |
| COC(=O)c1ccc(S(=O)(=O)N2CCCCC2)o1 | inconclusive: 20 µM [inhibitor, single point] |
| O=C(CCNC(=O)Cn1ccc2ccccc2c1=O)NCCN1CCc2ccccc2C1 | inactive |

| Compound | Potency |
| --- | --- |
| Cc1ccc(OCC(=O)O/N=C(\N)c2ccncc2)c(C)c1 | inactive |
| Cc1ccc(NCC(O)C(O)C(O)CO)cc1C (stereo unspecified) | inconclusive: 0.355 µM [inhibitor, full curve] |
| O=C1[C@H]2[C@@H](c3ccc(F)cc3)N3C(=O)N(c4cccc(Br)c4)C(=O)[C@@]3(Cc3ccc(Cl)cc3)[C@H]2C(=O)N1C1CCCCC1 | inconclusive: 2.24 µM [inhibitor, full curve, poor fit] |
| CN1CCN(CCCNC(=O)c2ccc(CSCc3cccc(Cl)c3)o2)CC1 | inactive |
| CN1CCN(C2=Nc3cc(Cl)ccc3Nc3ccccc32)CC1 | inactive |
| N#Cc1c(N)nc(SCc2ccccc2)c(C#N)c1-c1ccco1 | inconclusive: 17.8 µM [inhibitor, full curve] |
| Cc1ccc(C)c(NS(=O)(=O)c2ccc3c(c2)n(C)c(=O)n3C)c1 | inactive |
| COc1cc(OC)cc(C(=O)Nc2ccc(-c3nc4ccccc4o3)cc2)c1 | inactive |
| CCOC(=O)c1cnc(-n2nc(C)cc2C)nc1NCCO | inconclusive: 0.631 µM [inhibitor, full curve, poor fit] |
| CCC(=O)Nc1nnc(CSCc2ccc(F)cc2)s1 | inactive |
| CCCCCCCCCCCCCCCC(=O)NCCO | inconclusive: 8.91 µM [inhibitor, full curve] |
| Cc1ccc(S(=O)(=O)c2nnn3c2nc(NCc2cccs2)c2sccc23)cc1C | inactive |
| COC(=O)C(C)NC(=O)N1CCN(c2nnc(C)c3c(C)n(-c4ccc(Cl)cc4)nc23)CC1 (stereo unspecified) | inactive |
| N#CC1=C(N)SC(N)=C(C#N)C1c1ccoc1 | inconclusive: 17.8 µM [inhibitor, full curve, poor fit] |
| CC(=O)c1ccc(C(=O)N(Cc2cccnc2)c2nc3c(Cl)cccc3s2)cc1 | inconclusive: 0.562 µM [inhibitor, full curve, poor fit] |
| CCOC(=O)c1cn(CC)c2cc(Cl)c([N+](=O)[O-])cc2c1=O | inconclusive: 39.8 µM [inhibitor, single point] |
| O=C(COC(=O)c1ccc2ncsc2c1)Nc1cc(Cl)ccc1F | inconclusive: 0.631 µM [inhibitor, full curve, poor fit] |
| COC(=O)C(O)(c1ccc(NC(=O)c2ccccc2)cc1)C(F)(F)F (stereo unspecified) | inactive |
| O=C(/C=C/c1ccco1)Oc1cccc2cccnc12 | inactive |
| CCN1/C(=C2\C(=O)N(c3ccccc3)N=C2C)C=Cc2cc(C)ccc21 | inconclusive: 0.794 µM [inhibitor, full curve] |
| CCN(CC)c1ccc(CNc2ccc(Br)cn2)cc1 | inconclusive: 70.8 µM [inhibitor, single point] |
| O=C(CCS(=O)(=O)c1ccccc1)Nc1cccc(-c2nc3ccccc3s2)c1 | inactive |
| CCOCCCNC(=O)Nc1cc(C(=O)NCc2ccc(C(C)C)cc2)ccc1N1CCCC1 | inconclusive: 50.1 µM [inhibitor, partial curve] |
